# Counter-ions that a name gives are not always drawn. ± gives the standard deviation of the averaged measurements. The full ranking holds about 3,100 compounds; the median of “mean cytoplasmic OPP incorporation (global translation) relative to DMSO” is about 100, and the lowest 2% start at about 56. The list shows a part of the results.
# Test system: U2OS
# Assay: mean cytoplasmic OPP incorporation (global translation) relative to DMSO (% of DMSO); higher = more protein synthesis
# Conditions: 10 µM; 24 h
# Method: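 Primary image-based screen in U2OS cells: compounds at 10 uM for 24 h, then a 1 h o-propargyl-puromycin (OPP) pulse, click labelling, and high-throughput microscopy. Mean cytoplasmic OPP intensity and nuclei count were normalised to DMSO wells within each plate (DMSO = 100) and averaged over triplicate plates.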
row,Structure (SMILES),mean cytoplasmic OPP incorporation
1,O=[N+]([O-])O[C@H]1CO[C@H]2[C@@H]1OC[C@H]2O[N+](=O)[O-] [Isosorbide dinitrate],103
2,Cc1ncsc1CCCl [Chlormethiazole hydrochloride],90.6
3,CCN1CCN(C(=O)Cc2ccc(Nc3ncc(F)c(Nc4ccc(C(=O)Nc5ccccc5Cl)cc4)n3)cc2)CC1 [Aurora A Inhibitor I],117
4,CN1C2CCC1CC(OC(c1ccccc1)c1ccc(Cl)cc1)C2 (stereo not given),101
5,"CN1CCc2cc3c(cc2C1C1OC(=O)c2c1ccc1c2OCO1)OCO3 (single isomer, unassigned; (+)) [(+)-Bicuculline]",97.8 ± 4.2
6,CC(O)(CS(=O)(=O)c1ccc(F)cc1)C(=O)Nc1ccc(C#N)c(C(F)(F)F)c1 (stereo not given) [Bicalutamide],101
7,CCOC(=O)c1cncn1[C@H](C)c1ccccc1 [Etomidate],110 ± 2.8
8,"CC12NC(Cc3ccccc31)c1ccccc12 (single isomer, unassigned; (+)) [(+)-MK 801 maleate]",98.3
9,CC(C)c1cc2c(c(O)c1O)[C@@]1(C(=O)O)CCCC(C)(C)[C@@H]1CC2 [Carnosic acid],96.2
10,CC(C)c1cccc(C(C)C)c1O [Propofol],98
11,C[C@]12CC[C@H](O)C[C@H]1CC[C@@H]1[C@@H]2CC[C@]2(C)[C@@H](C3=CC(=O)OC3)CC[C@]12O [Digitoxigenin],26.3
12,CCCN1CCC[C@@H]2Cc3n[nH]cc3C[C@H]21 [(-)-Quinpirole hydrochloride],98.4
13,CCC(Oc1ccc(Cl)cc1)C(=O)OC1C[C@H]2CC[C@@H](C1)N2C (stereo not given in full) [SM-21 maleate],106
14,O=C(NCNC(=O)NC1C(=O)NC(=O)N1CO)NC1C(=O)NC(=O)N1CO (stereo not given) [Imidurea],105
15,CC(=O)O[C@H]1CC[C@@]2(C)C(=CC[C@@H]3[C@@H]2CC[C@]2(C)C(=O)CC[C@@H]32)C1 [Dehydroisoandosterone 3-acetate],83.5
16,O=[N+]([O-])c1ncc[nH]1 [Azomycin (2-Nitroimidazole)],97.8
17,CN1C[C@H](CNC(=O)OCc2ccccc2)C[C@@H]2c3cccc4c3c(cn4C)C[C@H]21 [Metergoline],114 ± 4.3
18,Oc1ccc2c3c1O[C@H]1[C@@H](O)CC[C@@]4(O)[C@@H](C2)N(CC2CCC2)CC[C@]314 [Nalbuphine hydrochloride],99.5
19,O=C1CN=C(c2cccc(Br)c2)c2oc3ccccc3c2N1,93.9
20,COc1cc2c(c(OC)c1OC)-c1ccc(OC)c(=O)cc1[C@@H](NC(C)=O)CC2 [Colchicine],89.8 ± 2.9

# Reference: the supplement of paper PMC8183993
